Reference: the antibiotic and cytotoxicity screens of Wong et al. (2023)
Some of the results follow.

Each compound was assayed on HSkMC (human skeletal muscle cells) (assay: cytotoxicity call (relative viability < 0.9)). Conditions: 10 µM.
For `C[C@@H]1CCCCO[C@H](CN(C)S(=O)(=O)c2cccs2)[C@H](C)CN([C@H](C)CO)C(=O)c2cc(NC(=O)Nc3ccccc3)ccc2O1`, the cytotoxicity call was “inactive”. With `C[C@@H]1CCCCO[C@@H](CN(C)C(=O)CCC(F)(F)F)[C@@H](C)CN([C@H](C)CO)C(=O)c2cc(NC(=O)NC3CCCCC3)ccc2O1` the cytotoxicity call was “inactive”. In the case of `c1cc(-c2nn[nH]n2)ccc1OCc1nn[nH]n1`, the cytotoxicity call is reported as “inactive”. In the case of `CC(CCc1ccc(O)cc1)NCC(O)c1ccc(O)cc1.Cl` (stereo not given), the cytotoxicity call is reported as “inactive”. For `C[C@H](CO)N1C[C@H](C)[C@@H](CN(C)Cc2ccc(Cl)c(Cl)c2)Oc2ccc(NS(=O)(=O)c3ccc(Cl)cc3)cc2CC1=O`, the cytotoxicity call was “inactive”. In the case of `O=C1C2C[C@H]3C=C[C@]2(CN1C1CC1)O3` (stereo not given in full), the cytotoxicity call is reported as “inactive”. With `c1csc(CNc2ccc(NCc3cccs3)cc2)c1` the cytotoxicity call was “inactive”. With `CCCNC(=O)Nc1ccc2c(c1)C(=O)N(C)C[C@H](OC)[C@@H](C)CN(Cc1ccc(-c3ccccn3)cc1)[C@H](C)CO2` the cytotoxicity call was “inactive”. In the case of `COc1ccc(NC(=O)Nc2ccc3c(c2)C(=O)N([C@@H](C)CO)C[C@@H](C)[C@H](CN(C)Cc2ccc(C(F)(F)F)cc2)OCCCC[C@@H](C)O3)cc1`, the cytotoxicity call is reported as “inactive”. For `C[C@H]1CN([C@@H](C)CO)C(=O)Cc2cc(NS(C)(=O)=O)ccc2O[C@H]1CN(C)Cc1ccc(C(F)(F)F)cc1`, the cytotoxicity call was “inactive”. For `COc1ccc(S(=O)(=O)N(C)C[C@@H]2OCCCC[C@H](C)Oc3ccc(NC(=O)Nc4ccccc4)cc3C(=O)N([C@H](C)CO)C[C@H]2C)cc1`, the cytotoxicity call was “inactive”. For `C[C@H]1CCCCO[C@H](CN(C)C(=O)NC2CCCCC2)[C@@H](C)CN([C@@H](C)CO)C(=O)c2cc(NC(=O)Nc3ccc(C(F)(F)F)cc3)ccc2O1`, the cytotoxicity call was “inactive”. For `Cc1noc(C)c1S(=O)(=O)Nc1ccc2c(c1)C(=O)N([C@H](C)CO)C[C@H](C)[C@H](CN(C)CC1CCCCC1)OCCCC[C@@H](C)O2`, the cytotoxicity call was “inactive”. In the case of `O=C(C[C@H]1CC[C@H](NC(=O)Nc2ccc3c(c2)OCO3)[C@H](CO)O1)NCCCN1CCOCC1`, the cytotoxicity call is reported as “inactive”. For `CCCCC(=O)OCC(=O)[C@]1(O)Cc2c(O)c3c(c(O)c2[C@@H](O[C@H]2C[C@H](NC(=O)C(F)(F)F)[C@H](O)[C@H](C)O2)C1)C(=O)c1c(OC)cccc1C3=O`, the cytotoxicity call was “active”. `C[C@@H]1CN([C@H](C)CO)C(=O)c2cccc(NS(=O)(=O)c3cn(C)cn3)c2O[C@H]1CN(C)Cc1ccc2c(c1)OCO2` was tested, and the cytotoxicity call was “inactive”. In the case of `C[C@H](CO)N1C[C@H](C)[C@H](CN(C)Cc2ccccc2)OCCCC[C@H](C)Oc2ccc(NC(=O)C3CCCCC3)cc2C1=O`, the cytotoxicity call is reported as “inactive”. `NC(Cc1ccc(O)c(O)c1)C(=O)O` (stereo not given) was tested, and the cytotoxicity call was “inactive”. In the case of `CC(C)NC(=O)N(C)C[C@H]1OCCCC[C@H](C)Oc2ccc(NC(=O)C3CCCCC3)cc2C(=O)N([C@@H](C)CO)C[C@@H]1C`, the cytotoxicity call is reported as “inactive”. In the case of `CSc1[nH]c(=O)[nH]c(=O)c1C#N`, the cytotoxicity call is reported as “inactive”. For `CCC[C@@H](O)C#Cc1cnc2c(c1)C(=O)N([C@H](C)CO)C[C@H](C)[C@H](CN(C)C(=O)Nc1ccc(F)cc1)O2`, the cytotoxicity call was “inactive”. In the case of `C[C@H](NC(=O)C[C@@H]1C[C@@H]2c3cc(NC(=O)Nc4ccc(C(F)(F)F)cc4)ccc3O[C@@H]2[C@@H](CO)O1)c1ccccc1`, the cytotoxicity call is reported as “inactive”. `C[C@@H]1CCCCO[C@@H](CN(C)Cc2ccc3c(c2)OCO3)[C@H](C)CN([C@@H](C)CO)C(=O)c2cc(NC(=O)NC3CCCCC3)ccc2O1` was tested, and the cytotoxicity call was “inactive”. With `O=C(C1=C[C@H](C2CC2)C[C@H](OCc2ccc(CO)cc2)O1)N1CCN(Cc2ccc3c(c2)OCO3)CC1` the cytotoxicity call was “inactive”. In the case of `C[C@H]1CN([C@@H](C)CO)C(=O)Cc2cc(NS(=O)(=O)c3ccc(Cl)cc3)ccc2O[C@@H]1CN(C)S(=O)(=O)c1cn(C)cn1`, the cytotoxicity call is reported as “inactive”. With `COc1ccc(S(=O)(=O)Nc2ccc3c(c2)C(=O)N([C@@H](C)CO)C[C@H](C)[C@H](CN(C)S(=O)(=O)c2cccs2)O3)cc1` the cytotoxicity call was “inactive”. `Nc1c(C(=O)O)cnc2nc(N3CCOCC3)nn12` was tested, and the cytotoxicity call was “inactive”. In the case of `C[C@@H]1CCCCO[C@H](CN(C)C(=O)c2ccccc2)[C@@H](C)CN([C@H](C)CO)C(=O)c2cc(NC(=O)Nc3ccc4c(c3)OCO4)ccc2O1`, the cytotoxicity call is reported as “inactive”. In the case of `CO[C@@H](CN(C)C(=O)c1ccc2c(c1)OCO2)[C@@H](C)CN([C@@H](C)CO)S(=O)(=O)c1ccc(F)cc1`, the cytotoxicity call is reported as “inactive”. With `C[C@H]1CCCCO[C@H](CN(C)C(=O)Nc2cccc3ccccc23)[C@@H](C)CN([C@@H](C)CO)C(=O)c2cc(NC(=O)CCC(F)(F)F)ccc2O1` the cytotoxicity call was “inactive”. With `C[C@H](CO)N1C[C@H](C)[C@H](CN(C)S(=O)(=O)c2ccccc2)Oc2ncc(-c3cccc(C(=O)N(C)C)c3)cc2C1=O` the cytotoxicity call was “inactive”. For `Cc1ccc2sc(N(CCCN(C)C)C(=O)c3ccc(S(=O)(=O)N(C)Cc4ccccc4)cc3)nc2c1C`, the cytotoxicity call was “active”. In the case of `COc1ccc(-c2noc(CSc3nc4sc(C)c(C)c4c(=O)n3-c3ccccc3)n2)cc1OC`, the cytotoxicity call is reported as “inactive”. `C[C@@H]1CN([C@H](C)CO)C(=O)c2cc(NS(=O)(=O)c3ccccc3)ccc2O[C@@H]1CN(C)Cc1ccc(Cl)c(Cl)c1` was tested, and the cytotoxicity call was “inactive”. For `CN(Cc1cc(Br)cc(Br)c1N)C1CCCCC1.Cl`, the cytotoxicity call was “inactive”. In the case of `C[C@@H]1CN([C@@H](C)CO)C(=O)c2cc(NS(=O)(=O)c3ccccc3)ccc2O[C@H]1CN(C)C(=O)Nc1cccc2ccccc12`, the cytotoxicity call is reported as “inactive”. For `C[C@@H]1CN([C@H](C)CO)S(=O)(=O)c2ccc(C#CCN(C)C)cc2O[C@@H]1CN(C)S(C)(=O)=O`, the cytotoxicity call was “inactive”. In the case of `C[C@@H]1CN([C@@H](C)CO)C(=O)c2cccc(NS(=O)(=O)c3ccc(F)cc3)c2O[C@H]1CN(C)S(=O)(=O)c1cccs1`, the cytotoxicity call is reported as “inactive”. For `C[C@H](CO)N1C[C@H](C)[C@@H](CN(C)C(=O)Nc2cccc3ccccc23)Oc2ccc(NC(=O)Nc3ccccc3)cc2CC1=O`, the cytotoxicity call was “active”. In the case of `C[C@H]1CN([C@@H](C)CO)C(=O)c2cc(NC(=O)Cn3cnnn3)ccc2O[C@H]1CN(C)C(=O)NC1CCCCC1`, the cytotoxicity call is reported as “inactive”.
